± gives the standard deviation of the averaged measurements. The list shows a part of the results.
These sequences were tested on PfAP2-LT AP2 domain (GST-tagged) (assay: gcPBM binding intensity (ln(normalized median fluorescence intensity)); higher = stronger DNA binding).
Summary of the method: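 For binding intensity, the highest Masliner-normalised natural-log median intensity across replicate spots of either probe orientation was taken. Protein bound to the array was stained with Alexa488 anti-GST antibody and scanned at 488 nm. The protein, GST-tagged P. falciparum DNA-binding domains from E. coli at about 25 μg on average, had been applied for 1 h to an Agilent 4 × 180k array of primer-extended double-stranded 36-bp intergenic genomic probes and negative controls.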

| Sequence | gcPBM binding intensity (ln) |
| --- | --- |
| AAAAAAACGATCGATCGTACTTATATTTACACATTC [XGTACX_site2883] | 8.9 ± 0.37 |
| TTGTTTGGTTATAATTGTACGCATGTAATTACATAT [XGTACX_site4972] | 9.05 ± 0.42 |
| TTATTTTTCTAAAAAGCATGCAAATAAAGATATGAA [TGCATGCA_site1032] | 8.51 ± 0.4 |
| ACATGGTGATAATACTGTACAAAAATAAATAAATAC [XGTACX_site897] | 9.1 ± 0.5 |
| ATATATATTTTATTATGTACTTACTTCTTTTCTTAA [XGTACX_site6163] | 8.89 ± 0.49 |
| TTTTATAGTCTTATGGGTACAAAATATTAACCCACG [XGTACX_site1131] | 8.37 ± 0.51 |
| TTAATATTTACAAAATGTACAGATTATTTATTGTTG [XGTACX_site1270] | 8.66 ± 0.45 |
| AAATATGTCAAATATACACACATAATAACTAGAATA [CACACA_site7151] | 9.14 ± 0.39 |
| TTTTTTAATATTTATACATGCATGCCGATTACTATA [TGCATGCA_site26] | 9.03 ± 0.5 |
| AATAATTATAATAAGGGTACGTATCTCACAGGAAAA [XGTACX_site4187] | 8.96 ± 0.45 |
| TTAATTTGTAAATAATGTACATATAAATGGAAAGTA [XGTACX_site2743] | 8.67 ± 0.4 |
| TATTTATTAAAACACACACACACACCGACAAAATAA [CACACA_site4293] | 9.97 ± 0.25 |
| TAATAAAACATATATACACACATTATGTATACATAT [CACACA_site1703] | 9.1 ± 0.37 |
| ACAATACAAATATATACACACATACATACATACATA [CACACA_site5699] | 9.33 ± 0.35 |
| TAAAATATTATCTACGCACACATTAAAATAAAAAAA [CACACA_site3709] | 8.86 ± 0.43 |
| AAAACATTATTCCATACACACCATACTTTTTAATAA [CACACA_site7326] | 8.89 ± 0.34 |
| CATTTGCACACGCACACACACATAAAAAGAAAAATA [CACACA_site6297] | 10 ± 0.35 |
| ATAAAGAAAAGGAACACACAAATATGTAAATATGTA [CACACA_site6356] | 9.19 ± 0.45 |
| TTACACATAAATACCATATAAATATAATGCATATCT [CACACA_negctrl_site1731] | 8.84 ± 0.38 |
| CCCTGAGCACTTTCGTGTACTAATAGTAACAATAAT [XGTACX_site1418] | 8.94 ± 0.46 |
| AATAATAAACACAATCAAATAAAATATGAAATATAA [GTGCAC_negctrl_site307] | 8.84 ± 0.49 |
| AAATGTTGAAATGATACACACATATAAATATAAATA [CACACA_site7229] | 9.03 ± 0.46 |

| Sequence | gcPBM binding intensity (ln) |
| --- | --- |
| AAACAAATGTATATGTGTACTTATTTTTTTGTATGT [XGTACX_site7134] | 8.8 ± 0.38 |
| TATGTAGATAAATAAGCACACACCAAACATATAAAA [CACACA_site1182] | 9.53 ± 0.42 |
| ATCAGTCGAGATGACAGTACACAGTAGCCAGGAAAT [XGTACX_site4932] | 9.12 ± 0.47 |
| TATATATATTTAAAAAGTACAAAAAAAAAAAATGAA [XGTACX_site374] | 8.56 ± 0.49 |
| AAAAAATAGACATATACACACATATGTATTTATAAT [CACACA_site5225] | 9.24 ± 0.47 |
| CGTATGCAAGGAACCACACACACACCCATAAATGTA [CACACA_site749] | 9.65 ± 0.35 |
| AATATAATAATAAAAACACACACGTTGATTGTATTA [CACACA_site2381] | 9.05 ± 0.38 |
| TAAAAATTCAATTGCACACGCACATATTTTAATAAG [CACACA_site2014] | 8.78 ± 0.38 |
| ATGTCATTATATACATGTACGCATATCTGTTTATCC [XGTACX_site3947] | 9.18 ± 0.51 |
| CCTATAATAAATAATACACACATATTGTAAATATAT [CACACA_site7496] | 9.01 ± 0.41 |
| ATTTCATATAGTGTAGTGCAATTTTAAGCATCAAGG | 8.72 ± 0.37 |
| TTAAAAATAAAAAATACACACTCTAGTCCATGTAAC [CACACA_site3640] | 8.84 ± 0.37 |
| TTTTTTTTTATAAGGTGTACGTAAAATGTGTAGGTC [XGTACX_site3585] | 8.6 ± 0.38 |
| TCATGTTTTACAAAAACACACAAATGAATATAAACC [CACACA_site1161] | 8.93 ± 0.35 |
| TCACATATTATCTTTACACACTATATATAAGTTTTA [CACACA_site2790] | 8.78 ± 0.44 |
| TTAAGATAGCAAATATGTACACATTTGTAAAATAAA [XGTACX_site4837] | 8.95 ± 0.49 |
| AGTACAGACATAGACACACACACACCCATAAAAAAA [CACACA_site1515] | 9.99 ± 0.45 |
| TGTACATAAATCTAATTATTATATGTGTATATATAT [CACACA_negctrl_site1582] | 8.63 ± 0.38 |
| ATACGTATTTATTTCACACACGTTAAAAAAATAAAA [CACACA_site6027] | 8.85 ± 0.47 |
| AGAATGAAATAATATACACACAAAGGAAAAATGTAA [CACACA_site3911] | 9.19 ± 0.47 |
| AAGGAGCCTATGAACACACACATGTACCTATATTAA [CACACA_site7838] | 9.24 ± 0.45 |
| ACTACATAATATTTACGTACCTAAAAAATTCTTATA [XGTACX_site509] | 8.55 ± 0.37 |

— the supplement of paper PMC11417369
